These are yes or no findings as the source states them, for the method shown. Binding seen in cells or lysates may run through a third protein. Some entries that bind do so weakly or less than the wild type. Tags and fused reporters may be left off the sequences shown.
T1: FLAG-Pat1b (full-length) (human) (UniProt Q86TB9)
T1 sequence: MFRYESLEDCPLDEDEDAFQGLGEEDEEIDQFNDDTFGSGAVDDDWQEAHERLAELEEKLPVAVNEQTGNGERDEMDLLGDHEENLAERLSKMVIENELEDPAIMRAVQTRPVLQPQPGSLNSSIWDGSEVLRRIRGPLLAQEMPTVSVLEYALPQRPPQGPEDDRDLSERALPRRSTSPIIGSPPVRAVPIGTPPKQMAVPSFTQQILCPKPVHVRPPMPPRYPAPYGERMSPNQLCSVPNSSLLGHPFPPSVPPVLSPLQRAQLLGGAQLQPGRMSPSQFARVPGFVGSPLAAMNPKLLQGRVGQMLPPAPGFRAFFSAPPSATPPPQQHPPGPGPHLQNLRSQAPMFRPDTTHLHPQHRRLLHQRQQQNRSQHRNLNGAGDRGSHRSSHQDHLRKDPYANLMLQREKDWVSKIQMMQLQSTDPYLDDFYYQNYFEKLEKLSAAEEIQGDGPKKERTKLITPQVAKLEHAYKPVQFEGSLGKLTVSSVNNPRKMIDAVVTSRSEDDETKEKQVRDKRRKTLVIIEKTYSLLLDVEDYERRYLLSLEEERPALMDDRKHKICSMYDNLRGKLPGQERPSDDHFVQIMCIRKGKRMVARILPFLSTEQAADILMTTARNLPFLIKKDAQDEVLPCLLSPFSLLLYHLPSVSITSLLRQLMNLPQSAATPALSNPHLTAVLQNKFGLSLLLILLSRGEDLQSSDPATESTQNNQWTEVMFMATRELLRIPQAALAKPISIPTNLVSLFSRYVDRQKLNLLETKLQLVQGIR

T2: FLAG-Pat1b T522E (human) (UniProt Q86TB9)
T2 sequence: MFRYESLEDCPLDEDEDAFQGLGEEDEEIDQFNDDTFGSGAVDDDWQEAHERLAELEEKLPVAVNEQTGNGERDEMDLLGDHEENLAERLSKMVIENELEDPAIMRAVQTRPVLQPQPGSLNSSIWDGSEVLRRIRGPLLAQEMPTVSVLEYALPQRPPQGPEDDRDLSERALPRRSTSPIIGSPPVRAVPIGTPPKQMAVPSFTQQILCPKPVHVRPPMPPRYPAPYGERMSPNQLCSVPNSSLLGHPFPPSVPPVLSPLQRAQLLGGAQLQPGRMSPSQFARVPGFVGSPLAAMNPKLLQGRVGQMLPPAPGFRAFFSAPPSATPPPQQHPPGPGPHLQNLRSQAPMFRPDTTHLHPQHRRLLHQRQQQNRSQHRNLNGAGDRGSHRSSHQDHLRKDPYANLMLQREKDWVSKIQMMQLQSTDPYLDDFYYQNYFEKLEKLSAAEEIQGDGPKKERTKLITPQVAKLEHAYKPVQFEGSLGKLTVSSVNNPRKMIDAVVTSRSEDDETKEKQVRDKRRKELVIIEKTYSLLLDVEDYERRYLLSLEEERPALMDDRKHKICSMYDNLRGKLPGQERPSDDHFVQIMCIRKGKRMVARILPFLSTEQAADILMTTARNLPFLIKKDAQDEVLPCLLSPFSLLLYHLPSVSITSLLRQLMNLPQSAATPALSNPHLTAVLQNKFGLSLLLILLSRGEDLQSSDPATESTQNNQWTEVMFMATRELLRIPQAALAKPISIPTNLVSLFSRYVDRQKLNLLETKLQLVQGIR

T3: FLAG-SART3 (UniProt Q15020)
T3 sequence: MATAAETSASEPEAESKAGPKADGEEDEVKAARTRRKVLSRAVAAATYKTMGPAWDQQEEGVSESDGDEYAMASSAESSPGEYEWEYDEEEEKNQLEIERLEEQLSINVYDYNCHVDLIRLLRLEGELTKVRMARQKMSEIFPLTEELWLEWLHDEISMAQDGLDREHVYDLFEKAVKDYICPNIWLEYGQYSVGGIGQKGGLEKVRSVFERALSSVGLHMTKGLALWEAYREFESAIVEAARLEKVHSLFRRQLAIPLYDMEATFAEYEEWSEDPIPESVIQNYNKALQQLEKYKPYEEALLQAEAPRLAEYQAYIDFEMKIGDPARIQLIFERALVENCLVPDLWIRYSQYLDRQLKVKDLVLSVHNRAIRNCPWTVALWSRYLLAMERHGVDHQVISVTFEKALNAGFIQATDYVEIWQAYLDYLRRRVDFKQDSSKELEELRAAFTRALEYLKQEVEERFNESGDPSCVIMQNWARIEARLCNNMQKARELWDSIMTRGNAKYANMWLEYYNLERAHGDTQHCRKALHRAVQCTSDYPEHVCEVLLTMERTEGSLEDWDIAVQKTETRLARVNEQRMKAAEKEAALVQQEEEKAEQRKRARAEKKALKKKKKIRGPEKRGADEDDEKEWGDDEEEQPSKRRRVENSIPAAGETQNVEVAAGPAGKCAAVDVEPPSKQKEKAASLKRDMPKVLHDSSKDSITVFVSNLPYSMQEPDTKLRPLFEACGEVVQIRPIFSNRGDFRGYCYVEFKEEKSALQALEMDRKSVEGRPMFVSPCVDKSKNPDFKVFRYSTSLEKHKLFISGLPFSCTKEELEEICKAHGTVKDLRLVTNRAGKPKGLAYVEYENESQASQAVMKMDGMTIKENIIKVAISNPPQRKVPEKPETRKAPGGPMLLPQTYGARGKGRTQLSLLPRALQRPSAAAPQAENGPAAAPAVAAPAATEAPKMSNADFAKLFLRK

B1: Lsm1 (protein, UniProt O15116 1-133)
chain: MNYMPGTASLIEDIDKKHLVLLRDGRTLIGFLRSIDQFANLVLHQTVERIHVGKKYGDIPRGIFVVRGENVVLLGEIDLEKESDTPLQQVSIEEILEEQRVEQQTKLEAEKLKVQALKDRGLSIPRADTLDEY
B2: Lsm2 (protein, UniProt Q9Y333 1-95)
chain: MLFYSFFKSLVGKDVVVELKNDLSICGTLHSVDQYLNIKLTDISVTDPEKYPHMLSVKNCFIRGSVVRYVQLPADEVDTQLLQDAARKEALQQKQ
B3: Lsm8 (protein, UniProt O95777 1-96)
chain: MTSALENYINRTVAVITSDGRMIVGTLKGFDQTINLILDESHERVFSSSQGVEQVVLGLYIVRGDNVAVIGEIDEETDSALDLGNIRAEPLNSVAH
B4: SART3 (endogenous) (protein, UniProt Q15020 1-963)
chain: MATAAETSASEPEAESKAGPKADGEEDEVKAARTRRKVLSRAVAAATYKTMGPAWDQQEEGVSESDGDEYAMASSAESSPGEYEWEYDEEEEKNQLEIERLEEQLSINVYDYNCHVDLIRLLRLEGELTKVRMARQKMSEIFPLTEELWLEWLHDEISMAQDGLDREHVYDLFEKAVKDYICPNIWLEYGQYSVGGIGQKGGLEKVRSVFERALSSVGLHMTKGLALWEAYREFESAIVEAARLEKVHSLFRRQLAIPLYDMEATFAEYEEWSEDPIPESVIQNYNKALQQLEKYKPYEEALLQAEAPRLAEYQAYIDFEMKIGDPARIQLIFERALVENCLVPDLWIRYSQYLDRQLKVKDLVLSVHNRAIRNCPWTVALWSRYLLAMERHGVDHQVISVTFEKALNAGFIQATDYVEIWQAYLDYLRRRVDFKQDSSKELEELRAAFTRALEYLKQEVEERFNESGDPSCVIMQNWARIEARLCNNMQKARELWDSIMTRGNAKYANMWLEYYNLERAHGDTQHCRKALHRAVQCTSDYPEHVCEVLLTMERTEGSLEDWDIAVQKTETRLARVNEQRMKAAEKEAALVQQEEEKAEQRKRARAEKKALKKKKKIRGPEKRGADEDDEKEWGDDEEEQPSKRRRVENSIPAAGETQNVEVAAGPAGKCAAVDVEPPSKQKEKAASLKRDMPKVLHDSSKDSITVFVSNLPYSMQEPDTKLRPLFEACGEVVQIRPIFSNRGDFRGYCYVEFKEEKSALQALEMDRKSVEGRPMFVSPCVDKSKNPDFKVFRYSTSLEKHKLFISGLPFSCTKEELEEICKAHGTVKDLRLVTNRAGKPKGLAYVEYENESQASQAVMKMDGMTIKENIIKVAISNPPQRKVPEKPETRKAPGGPMLLPQTYGARGKGRTQLSLLPRALQRPSAAAPQAENGPAAAPAVAAPAATEAPKMSNADFAKLFLRK

What was measured:
[1] = target: T1, FLAG-Pat1b (full-length) (human); experiment: co-IP; full-length FLAG-Pat1b HEK293 lysate treated with RNase A, M2 Sepharose, western blotting
[2] = target: T1, FLAG-Pat1b (full-length) (human); experiment: co-IP; FLAG-tagged proteins in lysates of transfected HEK293 cells on M2 beads, western blotting of bound proteins; in some experiments cells co-transfected with control (beta-globin), SART3 or Lsm1 siRNA
[3] = target: T2, FLAG-Pat1b T522E (human); experiment: as above
[4] = target: T1, FLAG-Pat1b (full-length) (human); experiment: co-IP; HEK293 cells transfected with FLAG-Pat1b or FLAG-GFP, lysates fractionated into nuclear and cytoplasmic pools, FLAG antibody precipitation of each (Figure S5B)
[5] = target: T2, FLAG-Pat1b T522E (human); experiment: as above
[6] = target: T3, FLAG-SART3; experiment: co-IP; FLAG-SART3 in HEK293 cells depleted of Pat1b by siRNA, FLAG immunoprecipitation, western blotting
[7] = target: T3, FLAG-SART3; experiment: co-IP; FLAG-tagged proteins in lysates of transfected HEK293 cells on M2 beads, western blotting of bound proteins; in some experiments cells co-transfected with control (beta-globin), SART3 or Lsm1 siRNA

| Binder | binding [1] | binding [2] | binding [3] | binding [4] | binding [5] | binding [6] | binding [7] |
| --- | --- | --- | --- | --- | --- | --- | --- |
| B1 | binds | binds | binds | binds | binds |  |  |
| B2 | binds | binds | binds | binds | binds | no binding (condition: cells depleted of Pat1b by siRNA) | binds |
| B3 |  | binds | no binding |  |  | no binding (condition: cells depleted of Pat1b by siRNA) | binds |
| B4 |  |  | no binding |  |  |  |  |

— publication PMC5554784
